Measured values published in PubChem BioAssay AID504832 (National Center for Advancing Translational Sciences (NCATS), 2011).
The whole screen tested about 310,000 compounds, of which about 18,000 (5.8%) were called active. This list was built around the results that the source calls inconclusive (neither active nor inactive); the mix of calls is not that of the screen. Calls follow the shape of the dose curve; as a rule, active = well fitted inhibition curve with a large enough effect; inconclusive = small, poorly fitted or top-dose-only effect, or another doubt; inactive = no such curve, though single readings can be large or run the other way. No potency is given beside an inconclusive call; the fits are too rough.

Test: Primary qHTS for delayed death inhibitors of the malarial parasite plastid, 48 hour incubation
Conditions: P. falciparum luciferase growth in erythrocytes; series mostly up to 28.7 µM; activity change, negative = inhibition: at the top concentration
Summary of the method: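 Read-out is firefly luciferase luminescence from an integrated reporter in P. falciparum, so falling signal marks reduced parasite growth. Infected erythrocytes were at 2% hematocrit and 0.1% parasitemia (final) in Albumax-supplemented RPMI 1640.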
% is scaled to controls: 0 for no effect and ±100 for the full control effect; potency is read from the fitted curve at half-maximal effect; tags tell the direction and shape of the fitted curve.

Structure (SMILES)	activity change, negative = inhibition	Potency
COc1ccc(NC(=O)COc2ccc(/C=N/O)cc2OC)cc1	inactive: 96.7%	
O=C(c1cc2cc(F)ccc2[nH]1)N(Cc1cccnc1)CC1CCCN(C2CCCCC2)C1 (stereo not given)		active: 2.62 µM
Nc1nccnc1C(=O)OCC(=O)NCCc1ccc(Cl)cc1	inactive: 39.1%	
CCOC(=O)/C(=C/c1ccc(N2CCC(c3ccccc3)=N2)cc1)C(C)=O	inactive: 202%	
Oc1c(C=Nc2cccc3cccnc23)sc2ccccc12		inconclusive [inhibitor, single point]
COc1cccc(NC(=O)c2ccccc2-c2nc(-c3cccc(C)c3)no2)c1		inconclusive [inhibitor, single point]
CCN1CCN(CCCNC(=O)c2ccc(/C=C3/Oc4ccccc4N(Cc4cccc(C)c4)C3=O)cc2)CC1		inconclusive [inhibitor, single point]
O=C(CN1C(=O)NC(Cc2c[nH]c3ccccc23)C1=O)NC1CC1 (stereo not given)	inactive: 13.1%	
O=c1oc(-c2ccc(Cl)c(Cl)c2)nn1-c1ccc(C(F)(F)F)cn1		inconclusive [inhibitor, single point]
CN1C=C/C(=C\c2cc[n+](C)c3ccccc23)c2ccccc21		inconclusive [inhibitor, full curve]
CNc1nc(N)c([N+](=O)[O-])c(Nc2cccc(F)c2)n1		inconclusive [inhibitor, full curve]
O=C(c1cc2ccccc2o1)N1CCN(c2ccccn2)CC1		active: 4.65 µM
O=C1NC(=S)NC(=O)C1=Cc1cccc2cc3ccccc3cc12		inconclusive [inhibitor, partial curve, poor fit]
Cc1ccc(NCC(=O)N/N=C\c2cccc(O)c2)cc1	inactive: 8.88%	
COC(=O)N1C(=O)[C@](c2ccccc2)(C2CCCC2)N1C(=O)OC	inactive: 17.5%	
Cc1nn(Cc2ccccc2)c(Cl)c1/C=C/C(=O)OC(C(=O)NC(N)=O)C(C)C (stereo not given)	inactive: -9.96%	
CCCCN(CC)C(=O)Cn1ncc2c3ccccc3n(CCC)c2c1=O		inconclusive [inhibitor, single point]
O=C(Nc1ccc(N2CCN(C(=O)c3ccco3)CC2)c(Cl)c1)c1c(F)c(F)c(F)c(F)c1F		inconclusive [inhibitor, single point]
CC(C)(C)c1ccc(/C=N/NC(=S)Nc2cccnc2)cc1		inconclusive [inhibitor, single point]
CCCc1cc(-c2ccc(O)c(OCC)c2)c(C#N)c(N)n1		inconclusive [inhibitor, single point]
O=C(NCc1ccccc1)c1c[nH]c2ccc(S(=O)(=O)Nc3ccc4c(c3)OCCO4)cc2c1=O		inconclusive [inhibitor, full curve, poor fit]
COC(=O)c1cc(-c2ccc(OC)c(OC)c2)on1	inactive: 13.4%	

Structure (SMILES)	activity change, negative = inhibition	Potency
COc1cccc(OC)c1C(=O)NNC(=O)c1cccc(COc2ccc3c(c2)CCC3)c1		active: 2.33 µM
CC1(OC(=O)C2CCCC2)C(=O)C=C2C=C(c3ccsc3)N(C3CCCC3)C=C2C1=O (stereo not given)		inconclusive [inhibitor, partial curve, poor fit]
CC(C)c1ccccc1NC(=O)c1ccccc1NC(=O)C1CCCCC1		active: 11.7 µM
COc1cc(-c2nc3ccc(C)cn3c2NCc2ccccc2)ccc1SC1CCCCC1		inconclusive [inhibitor, full curve, poor fit]
CCn1c2ccccc2c2cc(NC(=O)COc3ccccc3)ccc21	inactive: 11.7%	
Cc1cc(C(=O)NNC(=O)c2ccc(C)c([N+](=O)[O-])c2)c(C)o1		inconclusive [inhibitor, partial curve, poor fit]
Cc1ccc(C)c(N(CC(=O)NCc2ccco2)C(=O)CNS(=O)(=O)c2ccc(F)cc2)c1		inconclusive [inhibitor, full curve, poor fit]
Cc1ccc(-c2nc3ccccc3c(=O)n2O)cc1		inconclusive [inhibitor, partial curve, poor fit]
Cc1ccc(OCCSc2nc3ccccc3n2CC(=O)O)cc1	inactive: 0%	
Cc1ccc(N(CC(=O)Nc2ccccc2-c2ccccc2)S(=O)(=O)c2ccccc2)cc1		inconclusive [inhibitor, partial curve, poor fit]
O=C(Nc1ccc(S(=O)(=O)Nc2nccs2)cc1)c1cc(-c2ccccc2Cl)nc2ccccc12		inconclusive [inhibitor, single point]
COc1ccc(NC(=O)c2ccc(CN3CCN(c4ccccc4)CC3)cc2)cc1OC		inconclusive [inhibitor, single point]
Cc1cc(OCCOCCN2CCCC2)ccc1C(C)C		inconclusive [inhibitor, full curve, poor fit]
CN(C)N1C(N)=C(C#N)C(c2ccccc2F)C2=C1CC(C)(C)CC2=O (stereo not given)		inconclusive [inhibitor, single point]
COc1cc(NC(=O)CN2C(=O)CSc3ccc(S(=O)(=O)N4CCCC4)cc32)cc(OC)c1		inconclusive [inhibitor, single point]
S=C1N(c2ccccc2)C(c2ccc(Br)cc2)N2CCCN12 (stereo not given)		inconclusive [inhibitor, partial curve]
COc1ccc(-c2c3c(=O)n(C)c(=O)n(C)c3cn2-c2cc(OC)ccc2OC)cc1		active: 13.1 µM
Cc1nn(-c2ccc(F)cc2)c2nc(N)c(C#N)c(-c3ccc(O)c(O)c3)c12		active: 10.4 µM
CCN(CC(=O)Nc1ccc(NC(C)=O)cc1)C(=O)c1ccccc1SCc1c(C)noc1C		inconclusive [inhibitor, single point]
CC1CC(C)(C)NC(=S)N1CCCC(=O)N1CCN(c2ccc(F)cc2)CC1 (stereo not given)		inconclusive [inhibitor, partial curve, poor fit]
CCOc1ccc(CCNC(=O)COC(=O)C2CCN(S(=O)(=O)c3ccc(C)c(C)c3)CC2)cc1OCC		inconclusive [inhibitor, single point]
CC1(C)CC(=O)c2cnc(NC(=O)c3ccco3)nc2C1	inactive: -5.06%	

Structure (SMILES)	activity change, negative = inhibition	Potency
Cc1ccc(-c2noc(CCC(=O)NCCN3CCc4ccccc4C3)n2)cc1		inconclusive [inhibitor, single point]
O=C(COc1ccc(Cl)cc1)Nc1nnc(-c2ccco2)o1	inactive: 25.8%	
CCNc1nc(NCC)n2c(SCC(=O)Nc3ccc(C(F)(F)F)cc3[N+](=O)[O-])nnc2n1		inconclusive [inhibitor, single point]
O=S(=O)(NC1CC1)c1ccc(S(=O)(=O)N(Cc2ccccn2)C2CC2)cc1		inconclusive [inhibitor, single point]
O=C(Nc1ccc(F)c(Cl)c1)C1CCCN(C2=NS(=O)(=O)c3ccccc32)C1 (stereo not given)		inconclusive [inhibitor, partial curve, poor fit]
CCN(c1ccccc1)S(=O)(=O)c1ccc(Cl)c(NC(=O)CN2CCN(C)CC2)c1		inconclusive [inhibitor, single point]
CC(C)Oc1ccc(C(=O)NCC(=O)N2CCN(S(=O)(=O)/C=C/c3ccccc3)CC2)cc1		active: 14.7 µM
CC(=O)/C(C#N)=C1\NC(=O)C(Cc2cc(Cl)ccc2Cl)S1 (stereo not given)		inconclusive [inhibitor, partial curve, poor fit]
Cc1ccc(OP(=O)(NCc2ccccc2)Oc2ccc(C)cc2)cc1		inconclusive [inhibitor, single point]
CCn1cc(C(=O)O)c(=O)c2cc(F)c(N3CCN(C(=S)Nc4ccc(OC)cc4)CC3)cc21		inconclusive [inhibitor, full curve]
CCOC(=O)c1cc2sccc2n1Cc1ccc(C#N)cc1		inconclusive [inhibitor, single point]
Cc1cc(N=Nc2ccc(Cl)cc2)cc(CN2CCOCC2)c1O		active: 4.65 µM
COc1ccccc1/C=N/Nc1cc(N(C)C)nc(N(C)C)n1		inconclusive [inhibitor, single point]
CCOC(=O)C1CCN(C(=O)c2ccc(S(=O)(=O)Nc3ccccc3Cl)cc2)CC1	inactive: -11.6%	
CCN1CCN(c2cc(C)c3cc(NC(=S)N4CCN(c5ccccc5)CC4)ccc3n2)CC1		inconclusive [inhibitor, partial curve, poor fit]
Cc1cc(C(=O)N/N=C/c2ccc(-c3ccc([N+](=O)[O-])cc3Cl)o2)n[nH]1		inconclusive [inhibitor, single point]
CCCc1cc(C(=O)Nc2ccc(C(=O)c3ccccc3)cc2)n(C)n1		inconclusive [inhibitor, single point]
COc1ccccc1CCNS(=O)(=O)c1cc2c3c(c1)C(C)C(=O)N3CCC2 (stereo not given)		inconclusive [inhibitor, single point]
CCOC(=O)C1(Cc2cccc(OC)c2)CCCN(Cc2c(C)nn(C(C)C)c2C)C1 (stereo not given)		inconclusive [inhibitor, single point]
COc1ccc([C@H]2[C@H](C(=O)C(C)(C)C)N3N=Cc4ccccc4C3[C@]23N=C(c2ccccc2)OC3=O)cc1OC (stereo not given in full)		inconclusive [inhibitor, single point]
C/C(=N\Nc1ccc(C#N)cc1[N+](=O)[O-])c1ccc(O)cc1		inconclusive [inhibitor, single point]
